Drawing on PubChem BioAssay AID1346428 (National Center for Advancing Translational Sciences (NCATS), 2018), this text covers activation for 86 compounds.

The campaign covered roughly 48,000 compounds. About 1,200 (2.5%) were called active. Another 2% or so got no clear call; they are omitted.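 The calls were made as follows: active = activation of at least 60% and not above a set upper limit (about 1 call in 100 departs from these limits); inconclusive = activation of 40% to 60%, or above that upper limit; inactive = activation under 40%.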 The list shows a part of the results.

The test has as its target Probable G-protein coupled receptor 32 (Homo sapiens) (UniProt O75388). In words: qHTS for Agonists of Human Resolvin D1 Receptor DRV1. Also: 0% is about no effect. Conditions: CHO-K1 GPR32 beta-arrestin PathHunter luminescence, 90 min; at 76.9 µM; stronger effect = higher value; zero percent set by DMSO-only wells. In a few lines: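 Agonism was scored as beta-arrestin recruitment to ProLink-fused GPR32 in stably transfected CHO-K1 cells, giving a chemiluminescent beta-Gal signal; compounds were incubated 90 min at 37 °C.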
Chain of UniProt O75388 (O75388 whole entry, looked up, the tested form may be a part): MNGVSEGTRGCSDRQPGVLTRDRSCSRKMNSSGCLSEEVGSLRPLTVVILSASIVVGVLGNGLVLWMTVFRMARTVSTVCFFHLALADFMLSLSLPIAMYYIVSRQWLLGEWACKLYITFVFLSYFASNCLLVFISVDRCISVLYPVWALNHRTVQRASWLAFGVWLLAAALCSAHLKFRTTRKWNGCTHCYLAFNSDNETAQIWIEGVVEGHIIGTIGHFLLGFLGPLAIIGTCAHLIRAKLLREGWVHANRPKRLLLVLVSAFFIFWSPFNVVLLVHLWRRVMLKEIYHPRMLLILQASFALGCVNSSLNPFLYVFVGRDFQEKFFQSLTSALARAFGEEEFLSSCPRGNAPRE
Regarding `COc1ccc(NC(=O)c2cc(=O)c3ccc(C)c(C)c3o2)cc1Cl`, the activation is inactive: 0.276%.
Under `Cc1ccc(-n2ncc(C(=O)NCCN3CCc4ccccc4C3)c2C2CCNCC2)cc1C` stands inactive: 4.31%.
Take `CCCn1c(=NC(=O)c2c(-c3c(F)cccc3Cl)noc2C)c(C(=O)OCC)cc2c(=O)n3ccccc3nc21`: the activation is inactive: -5.44%.
On to `CC(=O)c1cccc(Nc2ccc3cc(S(=O)(=O)N4CCCC4)ccc3n2)c1`, for which the activation was inactive: 34.6%.
In the case of `Cc1cccc(CNC(=O)c2ccc(NC(=O)N3CCSc4ncccc43)cc2)c1`, the activation is inactive: -5.57%.
Take `CC1CCN(S(=O)(=O)c2ccc3c(c2)N(CC(=O)NCCCN2CCCC(C)C2)C(=O)CS3)CC1` (stereo unspecified): the activation is inactive: -18.1%.
Take `CCOc1ccc(NC(=O)C(C)Sc2nc3ncccc3o2)cc1` (stereo unspecified): the activation is inactive: -18.3%.
As for `CCN(CC)CCN`, the activation was inactive: -9.03%.
`CC(=O)c1ccc(N2CCN(c3ncnc4c3cnn4C)CC2)cc1`: the activation was inactive: 12.8%.
As for `Cc1ccc2c(c1)-c1ncc(C(=O)c3cc(Br)ccc3O)cc1CO2`, the activation is inactive: -40.2%.
The value for `COc1ccc(-n2nc(C(=O)Nc3cccc(C)n3)c3c4ccccc4n(C)c3c2=O)cc1` was inactive: 7.38%; that for `Cc1cccc(NC(=O)c2oc3ccc(S(=O)(=O)N4CCC5(CC4)OCCO5)cc3c2C)c1C` was inactive: 2.81%; that for `CCC(C)NC(=O)C1CCC(CNS(=O)(=O)c2cccc3nsnc23)CC1` (stereo unspecified) was inactive: 26.4%.
The value for `CCS(=O)(=O)N1CC(=O)N(c2ccc(C)c(C)c2)C(C)(C(=O)NC2CCCCC2)C1` (stereo unspecified) was inactive: 5.8%; that for `O=c1oc2ccc(Br)cc2cc1-c1nc(-c2ccccc2)no1` was inactive: -5.11%; that for `CCc1ccc(-c2nc3c(c(SCc4ccc(F)cc4)n2)Cc2c(CO)cnc(C)c2O3)cc1` was inactive: 13.2%.
With `COc1cccc(CNC(=O)Cn2ncc3c4ccccc4n(C)c3c2=O)c1`, the activation is inactive: 3.02%.
The value for `COCCNC(=O)CCCn1c(SCC(=O)Nc2cccc(C)c2)nc2c(sc3ccccc32)c1=O` was inactive: -15.2%; that for `CC1=C(C(=O)NCCc2ccc(Cl)cc2)C2(CCCCC2)OC1=O` was inactive: 6.97%.
Turning to `COc1ccc(N2CCN(C(c3ccccc3)c3nnc(-c4ccccc4Cl)o3)CC2)cc1` (stereo unspecified), the activation was inactive: -32.7%.
The value for `Cc1cccc(NC(=O)CSc2nc3c(oc4ccccc43)c(=O)n2C(C)C)c1` was inactive: -1.25%.
For the compound `COc1ccc(C(=O)c2oc3ccccc3c2NC(=O)COc2c(C)cc(C)cc2C)cc1`, the activation was inactive: 17.2%.
Under `COc1cccc(CNC(=O)c2c(O)nc3ccccn3c2=O)c1` stands inactive: -28.9%; under `CCOc1ccc(N2CC(c3nc4ccccc4n3CC(C)C)CC2=O)cc1` (stereo unspecified), inactive: -1.64%; under `COc1cc(-c2noc(-c3ccc(NCCc4ccccc4)c([N+](=O)[O-])c3)n2)cc(OC)c1OC`, inactive: 2.74%.
Take `Cc1ccc(C)c(N2CCN(C(=O)c3ccc4c(Cl)c5c(nc4c3)CCCC5)CC2)c1`: the activation was inactive: -38.9%.
On to `CC(C)NC[C@@H](O)COc1cccc2ccccc12`, for which the activation is inactive: 6.95%.
As to `COc1cc(NC(=O)CCNS(=O)(=O)c2ccc3c(c2)CCN3C(=O)C2CC2)cc(OC)c1`, the activation was inactive: -5.64%.
Take `COCC(=O)N1CCc2cc(OC)c(OC)cc2C1COc1ccc2c(C)cc(=O)oc2c1` (stereo unspecified): the activation is inactive: -6.52%.
`O=C(Cn1nnc2sc3c(c2c1=O)CCCC3)Nc1ccc(F)c(Cl)c1`: the activation was inactive: -18.4%.
Take `CCN1C(=O)c2ccccc2Sc2ccc(NC(=O)c3ccc(C)c(F)c3)cc21`: the activation is inactive: -10.2%.
Take `COc1cccc(NC(CNS(=O)(=O)c2ccc(C)cc2)c2ccccc2)c1` (stereo unspecified): the activation was inactive: 30.8%.
As to `COc1ccccc1N(CC(=O)NCCSCc1ccc(Cl)cc1)S(C)(=O)=O`, the activation is inactive: -3.42%.
As for `CN(Cc1ccccc1)c1ncnc2c1nc1n2CCCC1`, the activation is inactive: -6.49%.
In the case of `Cc1ccccc1CNC(=O)CCCn1nc(C)c2sc3ccccc3c2c1=O`, the activation was inactive: -20.7%.
`COc1ccc(C2NC(=O)NC(C)=C2C(=O)Nc2cc(C)cc(C)c2)c(OC)c1` (stereo unspecified): the activation is inactive: -0.261%.
The value for `CCc1c(C)nc2nncn2c1Nc1ccc(C)c(F)c1` was inactive: -4.08%; that for `CCCS(=O)(=O)NCCc1csc2nc(-c3ccc(OC)cc3)nn12` was inactive: -10.6%.
Regarding `Cc1cc(-c2ccc(C)c(S(=O)(=O)NCc3ccc(Cl)cc3)c2)on1`, the activation is inactive: 14.2%.
As to `Cc1ccc(CS(=O)(=O)Cc2ccc(C(=O)NCCc3ccc(Cl)cc3)o2)cc1`, the activation was inactive: -9.5%.
Regarding `CCCCOc1cccc(C(=O)Nc2cccc3ccc(C)nc23)c1`, the activation was inactive: -7.9%.
In the case of `COc1cccc(C(=O)Nc2nnc(S(=O)(=O)N3CCOCC3)s2)c1`, the activation was active: 69.6%.
Consider `COc1cc(OC)cc(C(=O)Nc2ccc3nc(N4CCC(C)CC4)cc(C)c3c2)c1`, for which the activation was inactive: -2.54%.
`CCC12CN3CC(CC)(CN(C1)C3c1ccc(OCc3ccccc3)cc1)C2=O` (stereo unspecified): the activation was inactive: 4.36%.
For the compound `Cc1cc(C)c2c(=O)cc(C(=O)Nc3ccccc3Cl)oc2c1`, the activation is inactive: 1.54%.
Consider `Cc1ccc2c(CC(=O)Nc3cc(C(F)(F)F)ccc3Cl)coc2c1C`, for which the activation is inactive: -5.64%.
Under `Cc1ccc2oc(=O)n(CCNC(=O)Nc3ccccc3Cl)c2c1` stands inactive: -6.47%; under `COc1ccc(C2CC(=O)Nc3c2c(=O)nc2c(C)cccn32)cc1` (stereo unspecified), inactive: 10.6%; under `CCOC(=O)c1c(C)[nH]c(C)c1S(=O)(=O)N1CCC(C(=O)Nc2ccccn2)CC1`, inactive: 2.24%.
Consider `O=S(=O)(O)NC1CCCCC1`, for which the activation is inactive: -0.109%.
Take `CC(C)c1ccc(NS(=O)(=O)c2ccc3[nH]c(=O)ccc3c2)cc1`: the activation is inactive: 6.29%.
For the compound `COC(=O)c1ccc(Cn2nc(-c3ccc(C)c(C)c3)ccc2=O)cc1`, the activation was inactive: -16.8%.
Regarding `CCc1ccc(NC(=O)C2CCCN(S(=O)(=O)c3c(C)[nH]c(=O)[nH]c3=O)C2)cc1` (stereo unspecified), the activation was inactive: 6.39%.
Under `CC(C)c1ccc(NC(=O)C2CCCN(S(=O)(=O)c3cccc4nonc34)C2)cc1` (stereo unspecified) stands inactive: 17%; under `O=C(Nc1noc2ccccc12)c1cccc(F)c1`, inactive: -15.9%; under `COc1ccc(Cl)cc1Nc1ncnc2c1nc1n2CCCC1`, inactive: -10.5%.
Under `O=C(CCS(=O)(=O)c1cc2c3c(c1)CCN3C(=O)CC2)NCc1ccc(F)cc1` stands inactive: -8.97%.
Take `COCCc1nn2c(=O)cc(COC(=O)COc3ccccc3C)nc2s1`: the activation is inactive: -0.983%.
As for `CCC(=O)Nc1ccc2nc(SCC(=O)N3CCc4ccccc43)sc2c1`, the activation was inactive: -7.22%.
In the case of `CCOC(=O)c1ccccc1NC1(c2ccc(OC)cc2)C(=O)c2ccccc2C1=O`, the activation was inactive: -14.5%.
In the case of `O=c1c2ccccc2n2c(-c3ccc(F)c(F)c3)nnc2n1CCc1ccccc1`, the activation is inactive: -4.69%.
Take `Cc1cc(C)c(NC(=O)CSc2nnc3[nH]c(=O)cc(C)n23)c(C)c1`: the activation was inactive: 5.11%.
Regarding `COC(=O)c1ccc(C2c3c(oc4cc(C)c(C)cc4c3=O)C(=O)N2c2ccccn2)cc1` (stereo unspecified), the activation was inactive: 1.93%.
For `CCOC(=O)c1c(S(=O)(=O)N2CCCC(C(=O)Nc3ccc(C)cc3C)C2)c(C)n(CC)c1C` (stereo unspecified), the activation is inactive: 9.58%.
As to `CCOC(=O)C1CCN(C(=O)CSc2c3c(nc4ccc(Cl)cc24)CCCC3)CC1`, the activation was inactive: -13.5%.
As to `CC(=O)Nc1ccc(C(=O)CSc2nnc3cc(C)c4ccccc4n23)cc1`, the activation was inactive: 6.1%.
As to `Cc1cc(C)c(NC(=O)Cn2c(=O)n(CCC(=O)NCc3ccc4c(c3)OCO4)c(=O)c3ccccc32)c(C)c1`, the activation was inactive: 13.5%.
As for `CCOc1ccc(S(=O)(=O)Nc2ccc3c(c2)c(C(C)=O)c(C)n3S(=O)(=O)c2ccc(OCC)cc2)cc1`, the activation is inactive: -10.8%.
For the compound `Cc1ccc(CNC(=O)c2ccc(-c3nc(CN4CCc5ccccc54)c(C)o3)cc2)cc1`, the activation is inactive: -0.238%.
For `CCCCNC(=O)c1ccc2c(=O)n(-c3ccccc3)c(=O)[nH]c2c1`, the activation was inactive: 9.96%.
As to `O=C(NCc1ccc(Cl)cc1)C(=O)NCC(c1ccco1)S(=O)(=O)c1cccs1` (stereo unspecified), the activation was inactive: -14.5%.
Under `Cc1ccc(NC(=O)c2sc3nc(-c4ccc(F)cc4)cn3c2C)c(C)c1` stands inactive: -12.9%; under `COc1ccc(CCC(=O)NC2CC(=O)N(c3ccc(C)c(C)c3)C2)cc1` (stereo unspecified), inactive: -11.8%.
Regarding `N#Cc1ccccc1Cn1nnc2c(=O)[nH]c(C3CCCN(S(=O)(=O)c4ccc(F)cc4)C3)nc21` (stereo unspecified), the activation was inactive: -2%.
Under `O=C(Nc1nc2nc(-c3ccccc3)cc(=O)n2[nH]1)c1ccc(F)cc1` stands inactive: 13.3%; under `CCc1ccccc1N1CC(c2nc3ccccc3n2Cc2cccc(C)c2)CC1=O` (stereo unspecified), inactive: 35.9%.
Consider `O=C(Nc1sc2c(c1C(=O)NCc1ccccc1)CCCC2)c1cc(=O)c2cc(Cl)ccc2o1`, for which the activation was inactive: 2.22%.
The value for `COc1cccc(CNC(=O)Cn2ccc3cc(S(=O)(=O)N4CCCC4)ccc32)c1` was inactive: 8.08%; that for `CCOc1ccc(S(=O)(=O)NCCc2sc(-c3ccc(C)cc3)nc2C)cc1` was inactive: 7.75%.
As for `CC1CCc2nn(CC(=O)Nc3cccc(C(F)(F)F)c3)c(=O)cc2C1` (stereo unspecified), the activation is inactive: -5.45%.
Take `COc1cc(NC(=O)Cn2c(=O)n(C(C)C)c(=O)c3oc4ccccc4c32)cc(OC)c1`: the activation was inactive: -12.7%.
Take `O=C(NCc1ccccc1)C1CCC(CNS(=O)(=O)c2ccc(Br)s2)CC1` (stereo unspecified): the activation was inactive: 35.8%.
Consider `O=C(Nc1cccnc1Cl)c1cc(-c2ccc(Cl)cc2)on1`, for which the activation was inactive: -1.7%.
On to `CC1CCN(S(=O)(=O)c2cc(C(=O)NCc3ccc(F)cc3)n(C)c2)CC1`, for which the activation was inactive: 22.2%.
`COc1cccc(COC(=O)c2ccc(-c3nnn(Cc4ccccc4)n3)cc2)c1`: the activation was inactive: -10.5%.
Consider `Cc1ccccc1C(=O)Nc1nnc(SCc2cc(=O)c3c(C)ccc(C)c3[nH]2)s1`, for which the activation was inactive: 14.4%.
